This is an account of results in the supplement of paper PMC11876631.

The chains are these.
B1: ftsZ V15W (protein)
chain: MFEPMELTNDAVIKWIGVGGGGGNAVEHMVRERIEGVEFFAVNTDAQALRKTAVGQTIQIGSGITKGLGAGANPEVGRNAADEDRDALRAALEGADMVFIAAGMGGGTGTGAAPVVAEVAKDLGILTVAVVTKPFNFEGKKRMAFAEQGITELSKHVDSLITIPNDKLLKVLGRGISLLDAFGAANDVLKGAVQGIAELITRPGLMNVDFADVRTVMSEMGYAMMGSGVASGEDRAEEAAEMAISSPLLEDIDLSGARGVLVNITAGFDLRLDEFETVGNTIRAFASDNATVVIGTSLDPDMNDELRVTVVATGIGMDKRPEITLVTNKQVQQPVMDRYQQHGMAPLTQEQKPVAKVVNDNAPQTAKEPDYLDIPAFLRKQAD
B2: ftsZ F99W (protein)
chain: B1 chain with W15V, F99W
B3: argC I180A (protein)
chain: MLNTLIVGASGYAGAELVTYVNRHPHMNITALTVSAQSNDAGKLISDLHPQLKGIVDLPLQPMSDISEFSPGVDVVFLATAHEVSHDLAPQFLEAGCVVFDLSGAFRVNDATFYEKYYGFTHQYPELLEQAAYGLAEWCGNKLKEANLIAVPGCYPTAAQLALKPLIDADLLDLNQWPVANATSGVSGAGRKAAISNSFCEVSLQPYGVFTHRHQPEIATHLGADVIFTPHLGNFPRGILETITCRLKSGVTQAQVAQVLQQAYAHKPLVRLYDKGVPALKNVVGLPFCDIGFAVQGEHLIIVATEDNLLKGAAAQAVQCANIRFGYAETQSLI
B4: ftsY I457P (protein)
chain: MAKEKKRGFFSWLGFGQKEQTPEKETEVQNEQPVVEEIVQAQEPVKASEQAVEEQPQAHTEAEAETFAADVVEVTEQVAESEKAQPEAEVVAQPEPVVEETPEPVAIEREELPLPEDVNAEAVSPEEWQAEAETVEIVEAAEEEAAKEEITDEELETALAAEAAEEAVMVVPPAEEEQPVEEIAQEQEKPTKEGFFARLKRSLLKTKENLGSGFISLFRGKKIDDDLFEELEEQLLIADVGVETTRKIITNLTEGASRKQLRDAEALYGLLKEEMGEILAKVDEPLNVEGKAPFVILMVGVNGVGKTTTIGKLARQFEQQGKSVMLAAGDTFRAAAVEQLQVWGQRNNIPVIAQHTGADSASVIFDAIQAAKARNIDVLIADTAGRLQNKSHLMEELKKIVRVMKKLDVEAPHEVMLTIDASTGQNAVSQAKLFHEAVGLTGITLTKLDGTAKGGVPFSVADQFGIPIRYIGVGERIEDLRPFKADDFIEALFARED
B5: ftsY I364Q (protein)
chain: B4 chain with I364Q, P457I
B6: ftsY M404P (protein)
chain: B4 chain with M404P, P457I
B7: ftsY I364P (protein)
chain: B4 chain with I364P, P457I
B8: ftsY I364A (protein)
chain: B4 chain with I364A, P457I
B9: ftsY M404Q (protein)
chain: B4 chain with M404Q, P457I
B10: ftsY M404A (protein)
chain: B4 chain with M404A, P457I
B11: ftsY M404D (protein)
chain: B4 chain with M404D, P457I

Positions count from the first letter of the chain named. In names and notes the source's numbering stands. ± gives the standard deviation of the averaged measurements. Laboratory Escherichia coli strains with one amino-acid change in an essential protein, pooled on minimal glucose agar with carbenicillin or gentamicin at twice the control MIC (plus kanamycin and chloramphenicol for the plasmids), 48 h. Fold change of barcode share against drug-free plates; higher = less susceptible. Active = above 20 in both replicates (the paper's putatively resistant). '<' = one read or none on drug, '>' = one read or none on a drug-free plate. Shares are relative, so most strains fall below 1 when a few take over. Listed are strains with at least 15 reads on both drug-free plates, and hits; most hits rest on fewer reference reads. Replicate rank correlation about 0.5. Edits are read from barcodes.

The target in the first series is Escherichia coli (laboratory strain). The series can be described thus: barcode share on antibiotic plates over drug-free plates; higher = less susceptible. To be noted: antibiotic: carbenicillin; 2× MIC (3.1 µg/mL). The procedure: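 A pool of E. coli strains, each edited to carry one amino-acid change in an essential protein, was grown for 48 h on minimal glucose agar with or without antibiotic; strain barcodes were sequenced; mean of two replicates.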
Take B1: the “fold change of barcode share” value was 0.166 ± 0.097.
In the case of B2, the “fold change of barcode share” value was determined as 0.235 ± 0.1.
Still for that read-out and setting: under B3 stands 0.489 ± 0.13; under B4, 0.329 ± 0.075; under B5, 0.245 ± 0.18.
On the same count and under the same terms, under B6 stands 0.135 ± 0.043.
Turning to B7, the “fold change of barcode share” value came out at 0.337 ± 0.24.
Still for that read-out and setting: in the case of B8 it was 0.263 ± 0.043; in that of B9, 0.598 ± 0.43; in that of B10, 0.25 ± 0.1.
Take B11: the “fold change of barcode share” value came out at 0.391 ± 0.13.

The series is the same for the next values; noted with them: antibiotic: gentamicin; 2× MIC (MIC 0.45 µg/mL).
Regarding B2, the “fold change of barcode share” value was less than 0.00937.
On the same count and under the same terms, in the case of B3 it was 0.00746 ± 0.00064; in that of B4, 0.00539 ± 0.0041.
The same measure, in the same setting: in the case of B5 it was less than 0.0157; in that of B6, less than 0.00865; in that of B7, less than 0.0163.
Still for that read-out and setting: in the case of B8 it was 0.341 ± 0.47.
Regarding B9, the “fold change of barcode share” value was less than 0.0145.
Regarding B10, the “fold change of barcode share” value came to 0.0095 ± 0.0052.
Take B11: the “fold change of barcode share” value is 0.0892 ± 0.029.
